Test results reported in article PMC4336329 (PLoS ONE, 2015).
Among all 310,000 compounds or so, about 14,000 (4.5%) showed an effect of 50% or more. The effect is printed as a negative number. The list shows a part of the results.

Each compound was assayed against human ether-à-go-go-related gene (hERG) potassium channel (human, UniProt Q12809) (assay: primary screen, population patch clamp on CHO cells stably expressing hERG).
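Note: peak tail current of the secondary pulse compared with the same well before compound.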

Chain of human ether-à-go-go-related gene (hERG) potassium channel (Q12809 whole entry, looked up): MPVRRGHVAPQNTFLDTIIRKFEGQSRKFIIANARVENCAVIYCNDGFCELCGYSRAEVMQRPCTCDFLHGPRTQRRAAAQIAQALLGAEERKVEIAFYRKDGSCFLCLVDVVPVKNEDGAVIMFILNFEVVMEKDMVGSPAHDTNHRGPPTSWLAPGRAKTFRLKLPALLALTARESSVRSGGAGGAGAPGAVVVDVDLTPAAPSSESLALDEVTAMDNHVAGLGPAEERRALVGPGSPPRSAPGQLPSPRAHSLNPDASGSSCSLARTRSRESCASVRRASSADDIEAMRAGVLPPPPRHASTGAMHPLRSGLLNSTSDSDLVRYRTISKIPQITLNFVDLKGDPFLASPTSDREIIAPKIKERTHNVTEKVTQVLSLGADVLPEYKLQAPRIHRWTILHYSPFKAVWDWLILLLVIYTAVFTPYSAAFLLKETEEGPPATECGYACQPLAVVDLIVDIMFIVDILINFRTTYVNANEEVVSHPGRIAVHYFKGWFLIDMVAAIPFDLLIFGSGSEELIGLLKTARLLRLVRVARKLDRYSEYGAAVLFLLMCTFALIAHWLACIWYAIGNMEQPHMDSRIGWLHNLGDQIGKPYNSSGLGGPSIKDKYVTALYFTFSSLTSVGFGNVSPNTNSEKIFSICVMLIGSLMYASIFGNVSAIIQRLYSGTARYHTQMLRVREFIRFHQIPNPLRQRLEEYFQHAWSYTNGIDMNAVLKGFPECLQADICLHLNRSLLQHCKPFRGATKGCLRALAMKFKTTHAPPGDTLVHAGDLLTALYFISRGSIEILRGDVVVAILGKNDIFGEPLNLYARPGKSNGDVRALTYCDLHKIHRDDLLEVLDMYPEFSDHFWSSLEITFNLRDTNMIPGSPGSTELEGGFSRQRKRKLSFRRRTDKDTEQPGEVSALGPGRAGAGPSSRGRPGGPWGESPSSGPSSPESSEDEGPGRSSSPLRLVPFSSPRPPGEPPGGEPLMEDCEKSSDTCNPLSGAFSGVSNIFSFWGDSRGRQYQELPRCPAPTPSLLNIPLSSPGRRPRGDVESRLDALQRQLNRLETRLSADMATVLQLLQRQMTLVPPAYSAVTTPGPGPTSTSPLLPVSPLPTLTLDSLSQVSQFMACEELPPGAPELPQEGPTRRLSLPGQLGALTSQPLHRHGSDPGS

Row | Compound | hERG current change (%, negative = inhibition) at 10uM
1 | COc1ccccc1-c1coc2c(CN3CCN(C)CC3)c(O)ccc2c1=O | 0.916%
2 | CC1(C)CC(=O)C=C(Nc2ccc([N+](=O)[O-])cc2)C1 | -16.6%
3 | COc1cccc(/C=C2\SC(=S)N(CCCC(=O)N3CCCC3)C2=O)c1 | -12.3%
4 | S=c1[nH]nc(Cc2noc3ccccc23)n1-c1ccc(Cl)cc1 | 14.8%
5 | COCCN(Cc1cc2cc(C)ccc2nc1Cl)C(=O)Nc1ccccc1C | -2.19%
6 | CCCN(CC1CC1)C(=O)COC(=O)c1[nH]c(C)c(C(=O)OCC)c1C | -5.5%
7 | OCCc1ccc(-c2ccc(Cl)cc2)o1 | 7.65%
8 | CCOC(=O)c1c(C)c(C)n(Cc2ccc(OC)c(OC)c2)c1C | -10.3%
9 | CN(CCNC(=O)c1ccc(CS(=O)(=O)c2c(Cl)cccc2Cl)o1)CCc1ccccc1 | -70%
10 | Cc1ccc(Cn2c(=O)n(Cc3ccco3)c(=O)c3ccccc32)cc1 | 16.3%
11 | CCC12OC(=N)C(C#N)(C1C)C(C#N)(C#N)C(c1ccccc1)O2 (stereo not drawn) | 2.68%
12 | CCN1CCCC1CNC(=O)c1cc2c(OC)cccc2[nH]1 (stereo not drawn) | -20.8%
13 | COc1ccccc1CNCC(=O)Nc1ccccc1-n1cccc1.Cl | -13.6%
14 | CCOc1ccc(-c2cc(C(=O)O)c3ccccc3n2)cc1 | 15.3%
15 | Cc1noc(C)c1COc1cccc(C(=O)Oc2ccc3c(c2)OCO3)c1 | -10.1%
16 | CCOP1(=O)OCC2OC(n3cnc4c(N)ncnc43)C(O)C2O1 (stereo not drawn) | 18.6%
17 | COc1ccc(NC(=O)CCSc2ccc(C)cc2)cc1S(=O)(=O)Nc1ccccc1Cl | 4.61%
18 | COC(=O)CC/C(O)=C1/C(=N)CC(C)(C)CC1=O | 24.5%
19 | COCC(=O)Nc1ccc2c(c1)OCC(=O)N2Cc1ccccc1F | 3.71%
20 | COC(=O)C1=C(C)OC(N)=C(C#N)C1c1cc2cccc(C)c2nc1Cl (stereo not drawn) | -5.39%
21 | O=C(Cc1n[nH]c(=O)c2ccccc12)OCC(=O)c1ccc(F)cc1 | -6.22%
22 | O=C(CCc1nc(-c2ccccc2)no1)NCC1CCCO1 (stereo not drawn) | 10.3%
23 | Clc1nc(Nc2ccccc2)nc(Nc2ccccc2)n1 | -6.63%

Row | Compound | hERG current change (%, negative = inhibition) at 10uM
24 | O=C(O)C(Cc1ccccc1)n1cccc1 (stereo not drawn) | 17.4%
25 | Cc1ccc(-c2nc3cccnc3s2)cc1NC(=O)c1ccco1 | -7.62%
26 | Cc1cc(/C=C(\C#N)c2nc3ccccc3[nH]2)c(C)n1C | -6.77%
27 | Fc1ccc2nc(Nc3nc4cc5c(cc4s3)OCCO5)sc2c1 | 13.6%
28 | CS(=O)(=O)NCc1ccc(C(=O)O)cc1 | 22.1%
29 | COC(=O)N/N=C1\CCCc2c(C)cc(C)cc21 | 10.1%
30 | O=C([O-])CSc1cccc2cccnc12.[Na+] | 4.74%
31 | CCCc1nc2ccccc2c(=O)n1/N=C/c1c(C)[nH]n(-c2ccc(C)cc2)c1=O | -3.66%
32 | COCCOC1CCN(C(=O)C2CCC(=O)N(Cc3cccc(F)c3)C2)CC1 (stereo not drawn) | 20.1%
33 | O=C(Nc1nc(=S)ss1)c1ccc(Cl)cc1Cl | 11.3%
34 | Cc1ccc(C)c(Cn2nnc3c(=O)[nH]c(C4CCCN(C(=O)c5cccs5)C4)nc32)c1 (stereo not drawn) | 0.859%
35 | Cc1cccc(N2CCCn3c2nc2c3c(=O)[nH]c(=O)n2C)c1 | -12.9%
36 | C/C(=N\NC(=O)CNC(=O)C(c1ccccc1)c1ccccc1)c1ccc(C(C)(C)C)cc1 | 14.8%
37 | CCNC(=O)NC(=O)C(C)Sc1nc2ccccc2c(=O)n1-c1cccnc1 (stereo not drawn) | 0.423%
38 | CCOC(=O)c1ccc(S(=O)(=O)N2CCN(C3CCCC3)CC2)cc1 | 2.59%
39 | O=S(=O)(c1ccccc1)N1CCN(C(=S)Nc2ccccc2Cl)CC1 | -1.04%
40 | O=S(=O)(NCCOc1cccc2cccnc12)c1ccc(F)cc1 | -14.6%
41 | Cl.c1ccc(CSc2nnc([C@@H]3CCCN3)o2)cc1 | -2.43%
42 | FC(F)(F)c1ccc(NC(=S)NC2CCCCC2)cc1 | 22.7%
43 | O=C(COC(=O)c1ccccc1S(=O)(=O)N1CCCCC1)NCC(F)(F)F | -21.4%
44 | CCCC[C@@H]1CNC(=O)C(=O)N1CC(C)(C)C | -0.819%
45 | COC(=O)CC1C(=O)NCCN1C(=O)Nc1ccc(Cl)cc1 (stereo not drawn) | 14.5%
46 | NNC(=O)Cn1c(SCc2ccccc2)nc2ccccc21 | 3%

Row | Compound | hERG current change (%, negative = inhibition) at 10uM
47 | Cc1ccc(S(=O)(=O)N(CCC#N)C2CCCCC2)c2nsnc12 | -21.9%
48 | O=S(=O)(/N=C(/Nc1cccc2ccccc12)c1ccc(F)cc1)c1ccccc1 | -42.8%
49 | Cc1cc(C)cc(NC(=O)CCN2CCOCC2)c1 | 3.56%
50 | CCc1cccc(OCCCCNCCO)c1.O=C(O)C(=O)O | 10.8%
51 | S=c1[nH]ncn1/N=C/c1cccc(Oc2ccccc2)c1 | 6.75%
52 | COc1ccc2[nH]c3c(=O)n(CCCCC(=O)NCCN4CCCC4)c(=S)[nH]c3c2c1 | 12.8%
53 | Cc1cccc(Nc2nc(-c3ccc(O)c(O)c3)cs2)n1 | 14.7%
54 | Cc1ccc(SCC(=O)N2CCN(c3ccccn3)CC2)cc1 | -10.2%
55 | CN1CCN(C(=O)Nc2ccc3c(c2)N(C)C(=O)c2ccccc2S3)CC1 | 8.57%
56 | Cc1c(C(=O)OCC2CCCO2)[nH]c2c1C(=O)CC(c1ccc(N(C)C)cc1)C2 (stereo not drawn) | -6.95%
57 | O=C(CSc1nc(O)cc(=O)[nH]1)N1c2ccccc2Sc2ccccc21 | 8.9%
58 | COc1cc(NC(=O)CCc2nnc3ccc(N4CCN(C)CC4)nn23)cc(OC)c1 | 25.2%
59 | O=C(Nc1nnc(C2=COCCO2)o1)c1ccc([N+](=O)[O-])cc1 | 14%
60 | O=C(CSc1ccc(Cl)cc1)N1CCCC1 | 16.6%
61 | O=S(=O)(Nc1ccc(-c2csc(-c3ccccc3)n2)cc1)c1ccccc1 | -10.7%
62 | CSCC[C@H](NC(=O)Cc1c(C)c2c(cc(C)c3c(C)c(C)oc32)oc1=O)C(=O)O | 0.0578%
63 | CC(=O)N1c2ccc(S(=O)(=O)N(C)CC(=O)NCc3ccccc3)cc2CC1C (stereo not drawn) | 3.67%
64 | CCN1C(=O)c2cccc3c(S(=O)(=O)NCc4ccccn4)ccc1c23 | -13.9%
65 | CC(=O)N1c2ccc(S(=O)(=O)N3c4ccccc4CC3C)cc2CC1C (stereo not drawn) | -38.3%
66 | O=C(Cn1cncn1)NCc1cccc(OC(F)F)c1 | 7.23%
67 | Cc1ccc(C(=O)NCCNC(=O)c2ccc(C)o2)o1 | 10.1%
68 | CC1(C)CC(=O)C2=C(C1)N(CC1CCCO1)C(=O)NC2(C(F)(F)F)C(F)(F)F (stereo not drawn) | -2.44%
69 | CCCC(=O)Nc1sc(-c2ccccc2)c(-c2ccccc2)c1C(=O)O | 8.15%

Row | Compound | hERG current change (%, negative = inhibition) at 10uM
70 | CCC(C)(C)n1nnnc1CN(Cc1ccc(Cl)cc1)Cc1ccco1 | -2.97%
71 | CCc1ccc(/C(C)=N/NC(=O)CNC(=O)/C=C/c2ccccc2OC)cc1 | 8.52%
72 | COc1ccccc1OCCC(=O)OCC(=O)NC(=O)NC(C)(C)C | 0.403%
73 | O=S(=O)(c1ccc2ccccc2c1)N1CCCCC1 | -14%
74 | CCn1c(-c2cccn(Cc3ccccc3)c2=O)n[nH]c1=S | 20.6%
75 | Cc1ccc(/C=C/C(=O)NCc2cccs2)cc1 | -1.23%
76 | O=C(Cc1cccs1)OCC(=O)c1ccco1 | 16.3%
77 | COc1ccccc1N(C(=O)c1ccco1)C(C(=O)NC1CCCC1)c1ccncc1 (stereo not drawn) | 6.08%
78 | NC1=[NH+]C2CS(=O)(=O)CC2S1.[Br-] (stereo not drawn) | -17.6%
79 | Cc1nn(CC(=O)NC2C(=O)N3C(C(=O)O)=C(CSc4nnnn4C)CSC23)cc1Br (stereo not drawn) | 24.2%
80 | CC(C)(O)C#Cc1ccc(C(=O)NCCc2ccc(S(N)(=O)=O)cc2)cc1 | 13.6%
81 | O=C(c1ccco1)N1CCN(C(=O)c2ccc(COc3ccc4c(c3)CCC4)o2)CC1 | -69%
82 | O=C(c1ccc(Cl)c([N+](=O)[O-])c1)N1CCN(S(=O)(=O)c2ccc(Cl)cc2)CC1 | -11.3%
83 | COc1ccc(C(O)c2ccccc2OP(=O)(N(C)C)N(C)C)cc1 (stereo not drawn) | -8.1%
84 | CCN(CC)CCNc1nc2ccccc2n1C | -1.77%
85 | Cc1ccccc1CN1C(=O)CS/C1=N/N=C/c1ccco1 | -14.1%
86 | CCOc1ccc(OCC)c(NC(=O)Cn2c(C)nc3ccccc3c2=O)c1 | -34%
87 | CCOC(=O)C(C)On1c(-c2ccc(Cl)cc2)nc2ccc([N+](=O)[O-])cc21 (stereo not drawn) | -20.4%
88 | CCn1nnnc1SCC(=O)c1ccc2c(c1)OCCO2 | 19.6%
89 | O=C(Nc1cccc(NC(=O)c2ccccc2Cl)c1)c1ccc([N+](=O)[O-])o1 | -16.4%
90 | Cc1ccc(C2NC(=O)c3c(sc4c3CCN(C)C4)N2)s1 (stereo not drawn) | -36.8%
